Consider one compound from PubChem BioAssay AID588593 (Sanford-Burnham Center for Chemical Genomics, 2011).

Not every entry of the source has a single result; some have several. Only these are listed. The source may hold further records. The values listed for one entry are repeats across runs, samples, wells, individuals or studies. Records carry a tag for their origin. Letters hold for one entry only.

The target in the test is glucose-6-phosphate dehydrogenase-6-phosphogluconolactonase (Plasmodium falciparum 3D7). Put plainly: inhibition of P. falciparum G6PD activity – biochemical, kinetic NADPH detection, orthogonal assay, SAR follow-up (AID 588593). The note with it: recombinant PfG6PD-6PGL.

As to `CCN1CCCC1CNC(=O)c1ccc2c(c1)NC(=O)/C(=C/c1ccccc1F)S2` (stereo unspecified), the IC50 (commonly the concentration that gives 50% inhibition) was 1.37 µM [sample A] and 21.5 µM [sample B].
